# Results taken from the supplement of paper PMC8728848.
# The other results are listed elsewhere or left out.
# Columns and labels:
# Test in all cases: glycan array binding signal (z-score within array); higher = stronger binding
# Settings in all cases: glycan notation: IUPAC condensed, linker removed
# [1] = target: Gal(b1-3)[Neu5Ac(a2-6)]GalNAc
# Procedure, shortened: (§1)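 The binding signal is a Z-score computed within each array and averaged over linkers. Arrays of the same protein sequence at different concentrations or buffers were also averaged together. Data originate from 3228 arrays in the Consortium for Functional Glycomics database, kept only where the protein sequence was available.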
# [2] = target: Gal(b1-3)[Neu5Ac(a2-6)]GlcNAc
# Procedure, shortened: as §1
# [3] = target: Gal(b1-3)[Neu5Ac(a2-6)]GlcNAc(a1-4)Gal(b1-4)Glc
# Procedure, shortened: as §1
# [4] = target: Gal(b1-3)[Neu5Ac(b2-6)]GlcNAc
# Procedure, shortened: as §1
# [5] = target: Gal(b1-4)GalNAc(a1-3)[Fuc(a1-2)]Gal(b1-4)GlcNAc
# Procedure, shortened: as §1
# [6] = target: Gal(b1-4)GalNAc(b1-3)[Fuc(a1-2)]Gal(b1-4)GlcNAc
# Procedure, shortened: as §1
# Gal(b1-4)Glc = target: Gal(b1-4)Glc
# Procedure, shortened: as §1
# Gal(b1-4)Glc6S = target: Gal(b1-4)Glc6S
# Procedure, shortened: as §1
# Gal(b1-4)GlcNAc = target: Gal(b1-4)GlcNAc
# Procedure, shortened: as §1
# [7] = target: Gal(b1-4)GlcNAc(b1-2)Man(a1-3)[Gal(b1-4)GlcNAc(b1-2)Man(a1-6)]Man(b1-4)GlcNAc(b1-4)GlcNAc
# Procedure, shortened: as §1
# [8] = target: Gal(b1-4)GlcNAc(b1-3)Gal(b1-4)Glc
# Procedure, shortened: as §1
# [9] = target: Gal(b1-4)GlcNAc(b1-3)Gal(b1-4)GlcNAc
# Procedure, shortened: as §1
# [10] = target: Gal(b1-4)GlcNAc(b1-3)Gal(b1-4)GlcNAc(b1-3)Gal(b1-4)GlcNAc
# Procedure, shortened: as §1
# [11] = target: Gal(b1-4)GlcNAc(b1-3)Gal(b1-4)[Fuc(a1-3)]GlcNAc(b1-3)Gal(b1-4)[Fuc(a1-3)]GlcNAc
# Procedure, shortened: as §1
# [12] = target: Gal(b1-4)GlcNAc(b1-3)GalNAc
# Procedure, shortened: as §1
# [13] = target: Gal(b1-4)GlcNAc(b1-3)[Gal(b1-4)GlcNAc(b1-6)]GalNAc
# Procedure, shortened: as §1
# [14] = target: Gal(b1-4)GlcNAc(b1-6)GalNAc
# Procedure, shortened: as §1
# [15] = target: Gal(b1-4)GlcNAc(b1-6)[Gal(b1-3)]GalNAc
# Procedure, shortened: as §1
# [16] = target: Gal(b1-4)GlcNAc(b1-6)[Gal(b1-3)]GlcNAc
# Procedure, shortened: as §1
# Gal3S(b1-3)GalNAc = target: Gal3S(b1-3)GalNAc
# Procedure, shortened: as §1
# Gal3S(b1-3)GlcNAc = target: Gal3S(b1-3)GlcNAc
# Procedure, shortened: as §1
# [17] = target: Gal3S(b1-3)[Fuc(a1-4)]GlcNAc
# Procedure, shortened: as §1
# Gal3S(b1-4)Glc = target: Gal3S(b1-4)Glc
# Procedure, shortened: as §1
# Gal3S(b1-4)Glc6S = target: Gal3S(b1-4)Glc6S
# Procedure, shortened: as §1
# Gal3S(b1-4)GlcNAc = target: Gal3S(b1-4)GlcNAc
# Procedure, shortened: as §1
# Gal3S(b1-4)GlcNAc6S = target: Gal3S(b1-4)GlcNAc6S
# Procedure, shortened: as §1
# Gal3S6S(b1-4)GlcNAc = target: Gal3S6S(b1-4)GlcNAc
# Procedure, shortened: as §1
# Gal3S6S(b1-4)GlcNAc6S = target: Gal3S6S(b1-4)GlcNAc6S
# Procedure, shortened: as §1
# Gal4S(b1-4)GlcNAc = target: Gal4S(b1-4)GlcNAc
# Procedure, shortened: as §1
# Gal4S6S(b1-4)GlcNAc = target: Gal4S6S(b1-4)GlcNAc
# Procedure, shortened: as §1
# Gal6S(b1-4)Glc = target: Gal6S(b1-4)Glc
# Procedure, shortened: as §1
# Gal6S(b1-4)Glc6S = target: Gal6S(b1-4)Glc6S
# Procedure, shortened: as §1
# Gal6S(b1-4)GlcNAc = target: Gal6S(b1-4)GlcNAc
# Procedure, shortened: as §1
# GalNAc(a1-3)Gal = target: GalNAc(a1-3)Gal
# Procedure, shortened: as §1
# GalNAc(a1-3)GalNAc = target: GalNAc(a1-3)GalNAc
# Procedure, shortened: as §1
# [18] = target: GalNAc(b1-3)Gal(a1-4)Gal(b1-4)GlcNAc
# Procedure, shortened: as §1
# GalNAc(b1-4)GlcNAc = target: GalNAc(b1-4)GlcNAc
# Procedure, shortened: as §1
# Glc(a1-4)Glc = target: Glc(a1-4)Glc
# Procedure, shortened: as §1
# Glc(a1-6)Glc(a1-6)Glc = target: Glc(a1-6)Glc(a1-6)Glc
# Procedure, shortened: as §1
# Glc(b1-4)Glc = target: Glc(b1-4)Glc
# Procedure, shortened: as §1
# Glc(b1-6)Glc = target: Glc(b1-6)Glc
# Procedure, shortened: as §1
# GlcA(b1-3)Gal = target: GlcA(b1-3)Gal
# Procedure, shortened: as §1
# GlcA(b1-6)Gal = target: GlcA(b1-6)Gal
# Procedure, shortened: as §1
# [19] = target: GlcNAc(a1-3)Gal(b1-4)GlcNAc
# Procedure, shortened: as §1
# [20] = target: GlcNAc(a1-6)Gal(b1-4)GlcNAc
# Procedure, shortened: as §1
# [21] = target: GlcNAc(b1-2)Gal(b1-3)GlcNAc
# Procedure, shortened: as §1
# [22] = target: GlcNAc(b1-2)Man(a1-3)[GlcNAc(b1-2)Man(a1-6)]Man(b1-4)GlcNAc(b1-4)GlcNAc
# Procedure, shortened: as §1
# GlcNAc(b1-3)Gal = target: GlcNAc(b1-3)Gal
# Procedure, shortened: as §1
# [23] = target: GlcNAc(b1-3)Gal(b1-3)GalNAc
# Procedure, shortened: as §1
# GlcNAc(b1-3)Gal(b1-4)Glc = target: GlcNAc(b1-3)Gal(b1-4)Glc
# Procedure, shortened: as §1
# [24] = target: GlcNAc(b1-3)Gal(b1-4)GlcNAc
# Procedure, shortened: as §1
# [25] = target: GlcNAc(b1-3)Gal(b1-4)GlcNAc(b1-3)Gal(b1-4)GlcNAc
# Procedure, shortened: as §1
# GlcNAc(b1-3)GalNAc = target: GlcNAc(b1-3)GalNAc
# Procedure, shortened: as §1
# [26] = target: GlcNAc(b1-3)[GlcNAc(b1-4)][GlcNAc(b1-6)]GlcNAc
# Procedure, shortened: as §1
# [27] = target: GlcNAc(b1-3)[GlcNAc(b1-6)]Gal(b1-4)GlcNAc
# Procedure, shortened: as §1
# [28] = target: GlcNAc(b1-3)[GlcNAc(b1-6)]GlcNAc
# Procedure, shortened: as §1
# [29] = target: GlcNAc(b1-4)Gal(b1-4)GlcNAc
# Procedure, shortened: as §1
# [30] = target: GlcNAc(b1-4)GlcNAc(b1-4)GlcNAc
# Procedure, shortened: as §1
# [31] = target: GlcNAc(b1-4)GlcNAc(b1-4)GlcNAc(b1-4)GlcNAc(b1-4)GlcNAc
# Procedure, shortened: as §1
# [32] = target: GlcNAc(b1-4)GlcNAc(b1-4)GlcNAc(b1-4)GlcNAc(b1-4)GlcNAc(b1-4)GlcNAc
# Procedure, shortened: as §1
binder,measurement,setting,value
"TbCVNHOa (Tuber borchii), Q5MK11 (protein) GSHIGPYMSYADSSRNAVLTNGGRTLRAECRNADGNWVTSELDLDTCIGNPNGFLGWGMQNFSHSSEDIKLEEGGRKLTCRPKTVDGGFRERQGIDLNRIQNVNGRLVFQ",glycan array binding signal (z-score),[1],-0.291
same,glycan array binding signal (z-score),[2],-0.266
same,glycan array binding signal (z-score),[3],1.8
same,glycan array binding signal (z-score),[4],-0.275
same,glycan array binding signal (z-score),[5],-0.226
same,glycan array binding signal (z-score),[6],-0.277
same,glycan array binding signal (z-score),Gal(b1-4)Glc,-0.264
same,glycan array binding signal (z-score),Gal(b1-4)Glc6S,-0.236
same,glycan array binding signal (z-score),Gal(b1-4)GlcNAc,-0.238
same,glycan array binding signal (z-score),[7],-0.282
same,glycan array binding signal (z-score),[8],2.73
same,glycan array binding signal (z-score),[9],-0.288
same,glycan array binding signal (z-score),[10],-0.058
same,glycan array binding signal (z-score),[11],-0.219
same,glycan array binding signal (z-score),[12],-0.267
same,glycan array binding signal (z-score),[13],-0.276
same,glycan array binding signal (z-score),[14],-0.295
same,glycan array binding signal (z-score),[15],-0.229
same,glycan array binding signal (z-score),[16],-0.258
same,glycan array binding signal (z-score),Gal3S(b1-3)GalNAc,-0.317
same,glycan array binding signal (z-score),Gal3S(b1-3)GlcNAc,-0.261
same,glycan array binding signal (z-score),[17],-0.153
same,glycan array binding signal (z-score),Gal3S(b1-4)Glc,-0.255
same,glycan array binding signal (z-score),Gal3S(b1-4)Glc6S,-0.204
same,glycan array binding signal (z-score),Gal3S(b1-4)GlcNAc,-0.26
same,glycan array binding signal (z-score),Gal3S(b1-4)GlcNAc6S,-0.275
same,glycan array binding signal (z-score),Gal3S6S(b1-4)GlcNAc,-0.229
same,glycan array binding signal (z-score),Gal3S6S(b1-4)GlcNAc6S,-0.289
same,glycan array binding signal (z-score),Gal4S(b1-4)GlcNAc,0.003
same,glycan array binding signal (z-score),Gal4S6S(b1-4)GlcNAc,-0.257
same,glycan array binding signal (z-score),Gal6S(b1-4)Glc,-0.213
same,glycan array binding signal (z-score),Gal6S(b1-4)Glc6S,-0.246
same,glycan array binding signal (z-score),Gal6S(b1-4)GlcNAc,-0.177
same,glycan array binding signal (z-score),GalNAc(a1-3)Gal,0.011
same,glycan array binding signal (z-score),GalNAc(a1-3)GalNAc,-0.274
same,glycan array binding signal (z-score),[18],-0.155
same,glycan array binding signal (z-score),GalNAc(b1-4)GlcNAc,-0.239
same,glycan array binding signal (z-score),Glc(a1-4)Glc,-0.256
same,glycan array binding signal (z-score),Glc(a1-6)Glc(a1-6)Glc,0.079
same,glycan array binding signal (z-score),Glc(b1-4)Glc,0.33
same,glycan array binding signal (z-score),Glc(b1-6)Glc,1.84
same,glycan array binding signal (z-score),GlcA(b1-3)Gal,-0.21
same,glycan array binding signal (z-score),GlcA(b1-6)Gal,-0.243
same,glycan array binding signal (z-score),[19],-0.293
same,glycan array binding signal (z-score),[20],-0.292
same,glycan array binding signal (z-score),[21],-0.293
same,glycan array binding signal (z-score),[22],-0.25
same,glycan array binding signal (z-score),GlcNAc(b1-3)Gal,-0.283
same,glycan array binding signal (z-score),[23],-0.222
same,glycan array binding signal (z-score),GlcNAc(b1-3)Gal(b1-4)Glc,0.192
same,glycan array binding signal (z-score),[24],-0.152
same,glycan array binding signal (z-score),[25],-0.288
same,glycan array binding signal (z-score),GlcNAc(b1-3)GalNAc,-0.292
same,glycan array binding signal (z-score),[26],-0.186
same,glycan array binding signal (z-score),[27],-0.228
same,glycan array binding signal (z-score),[28],-0.255
same,glycan array binding signal (z-score),[29],-0.168
same,glycan array binding signal (z-score),[30],0.018
same,glycan array binding signal (z-score),[31],-0.034
same,glycan array binding signal (z-score),[32],-0.189
